The whole screen tested about 130,000 compounds, of which about 1,900 (1.5%) were called active. This list was built around the results that the source calls inconclusive (neither active nor inactive); the mix of calls is not that of the screen. The call rests on the fitted dose curve; in most records, active means well fitted cell-killing curve with a large enough effect; inconclusive means small, poorly fitted or top-dose-only effect; inactive means no such curve, though single readings can be large or run the other way. A potency beside an inconclusive call is a rough fit, not a confirmed value.
Assay: qHTS Screen for Compounds that Selectively Target Cancer Cells with p53 Mutations: Cytotoxicity of p53ts Cells at the Nonpermissive Temperature; further: nearly all actives have a fitted effect of over 55% in size
Settings: H1299-p53A138V viability at 39C, ATP luminescence, 24 h; activity change, negative = cell killing: at 46.1 µM (top of the series)
On the % scale 0 is the no-effect control and ±100 the full control effect; potency means the concentration at half of the fitted maximal effect; tags describe the fitted curve by direction and shape.

Compound	Potency	activity change, negative = cell killing
O=C(Oc1ccccc1Cl)c1cc(-c2ccc3c(c2)OCCO3)on1	inconclusive: 31.6 µM [cytotoxic, single point]	–
CCN1CCN(c2cc(C)c3cc(NC(=O)c4cccc(Cl)c4)ccc3n2)CC1	active: 2.51 µM	–
Cc1ccc(-c2cc(-c3ccccc3Cl)[nH]n2)c(O)c1	inconclusive: 10 µM [cytotoxic, partial curve]	–
Cc1sc(-n2cccc2)c(C(C)NC(=O)Nc2ccccc2Cl)c1C (stereo not drawn)	inconclusive: 0.0126 µM [cytotoxic, full curve, poor fit]	–
O=C(CCCc1nc(-c2ccccc2)no1)Nc1cc(C(F)(F)F)cc(C(F)(F)F)c1	inconclusive: 20 µM [cytotoxic, single point]	–
O=c1[nH]c(=O)n([C@H]2C[C@H](O)[C@@H](CO)O2)cc1Br	inconclusive: 31.6 µM [cytotoxic, single point]	–
COc1ccccc1CN1CCC2(CC1)CCN(S(=O)(=O)c1ccccc1)CC2	–	inactive: -3.6%
O=C(Nc1cc(Cl)cc(Cl)c1)c1cc(S(=O)(=O)N2CCC3(CC2)OCCO3)ccc1F	inconclusive: 20 µM [cytotoxic, partial curve, poor fit]	–
COc1cccc(NC(=O)Cc2csc(COc3cccc(C)c3)n2)c1	inconclusive: 5.01 µM [cytotoxic, single point]	–
CC(C)c1ccc(Cn2ccc3c4c(N)nc(NC5CC5)nc4ccc32)cc1	active: 31.6 µM	–
Cc1ccc(-n2ncc3c(Nc4cccc(C(F)(F)F)c4)ncnc32)cc1C	inconclusive: 31.6 µM [cytotoxic, partial curve, poor fit]	–
CC1CCCCN1C(=O)CSc1c2c(nc3cc(Cl)ccc13)CCCC2 (stereo not drawn)	active: 12.6 µM	–
CC(C)c1ccc(NC(=O)c2cnc3sc(N4CCOCC4)nn3c2=O)cc1	inconclusive: 0.501 µM [cytotoxic, full curve, poor fit]	–
COc1ccc2c(c1)sc1nc(-c3ccccc3)cn12	active: 1.26 µM	–
CC1(C)Cc2nc3sc4c(SCC(=O)NCc5ccco5)ncnc4c3cc2CO1	inconclusive: 12.6 µM [cytotoxic, single point]	–
O=C(COC(=O)c1cccc(NC(=O)c2ccc(Br)cc2)c1)c1ccc(Cl)cc1	inconclusive: 12.6 µM [cytotoxic, partial curve]	–
CCOc1ccc(CNC(=O)c2ccc3c(c2)nc2n3CCCCC2)cc1	inconclusive: 25.1 µM [cytotoxic, partial curve]	–
Cc1cc(Br)cc2c1N(Cc1ccccc1OC(C)C)C(=O)C2=O	inconclusive: 12.6 µM [cytotoxic, single point]	–
Cc1ccc(Nc2nnc(SCC(=O)Nc3ncc(C(F)(F)F)cc3Cl)s2)cc1	–	inactive: 16.6%
Nc1nc(Sc2ccc([N+](=O)[O-])c3nonc23)c2[nH]cnc2n1	inconclusive: 3.98 µM [cytotoxic, partial curve]	–
CCOC(=O)c1ccc(NC(=O)N(CC)CC)cc1	inconclusive: 25.1 µM [cytotoxic, single point]	–
CC1CCCN(CCCNC(=O)c2cc3c(Cl)nc4ccccc4c3s2)C1 (stereo not drawn)	inconclusive: 20 µM [cytotoxic, single point]	–

Compound	Potency	activity change, negative = cell killing
O=C(Nc1ccc2nc(-c3ccco3)[nH]c2c1)c1cccs1	active: 12.6 µM	–
CCCCS(=O)(=O)Nc1ccc(Cc2ccncc2)cc1	–	inactive: -2.85%
CN(Cc1ccco1)S(=O)(=O)c1nnc(NC(=O)c2ccccc2Cl)s1	inconclusive: 15.8 µM [cytotoxic, single point]	–
CO[C@H]1COC(=O)[C@H](C)NC(=O)C/C=C\[C@@H](C)[C@@H](NS(=O)(=O)c2ccc(C)cc2)COC(=O)[C@H](OCc2ccccc2)/C=C\[C@@H]1C	–	inactive: 11.2% [at 9.22 µM]
CCN1CCN(Cc2c(O)ccc3c(=O)c(Oc4ccccc4C(C)C)c(C(F)(F)F)oc23)CC1	–	inactive: 17.7%
CCc1ccc(NC(=O)C2C3C=CC(C4CC34)C2C(=O)O)cc1 (stereo not drawn)	inconclusive: 8.91 µM [cytotoxic, partial curve]	–
CC(C)(C)OC(=O)N1CCC(c2c(C(=O)NCCN3CCOCC3)cnn2-c2ccc(F)cc2)CC1	–	inactive: -1.45%
Cc1ccc2c(=O)cc(C(=O)Nc3sc4c(c3C(=O)NCC3CCCO3)CCCC4)oc2c1C (stereo not drawn)	–	inactive: 24.3%
COc1cccc(Cn2c(SCc3ccc(C(=O)N4CCCCC4)cc3)nc3ccncc32)c1	inconclusive: 10 µM [cytotoxic, partial curve, poor fit]	–
COc1ccc(C)cc1NC(=O)C(Cc1ccccc1)NS(=O)(=O)c1ccc(Br)s1 (stereo not drawn)	active: 12.6 µM	–
CCc1ccc(CNC(=O)C2CCN(c3nnc(C)c4c(C)n(-c5ccc(C)cc5)nc34)CC2)cc1	inconclusive: 7.94 µM [cytotoxic, partial curve]	–
CCCCN1c2ccccc2N(CCCO)c2cc(C)nnc21	inconclusive: 10 µM [cytotoxic, partial curve]	–
CN(C)c1ccc(N/C=C/C(=O)c2ccc(F)cc2)cc1	inconclusive: 25.1 µM [cytotoxic, single point]	–
O=C(COc1ccc([N+](=O)[O-])cc1)N1CCC(c2nc3ccccc3s2)CC1	–	inactive: -9.53%
O=C(Nc1ccccc1O)c1ccc(Cl)cc1	inconclusive: 12.6 µM [cytotoxic, partial curve]	–
COc1cccc(-c2nc(NC3CCNCC3)c3ccccc3n2)c1	active: 15.8 µM	–
O=C(Nc1nnc(S(=O)(=O)N2CCCCCC2)s1)c1ccccc1F	inconclusive: 12.6 µM [cytotoxic, partial curve]	–
CCOc1cccc2sc(N3CCN(C(=O)C(C)(C)C)CC3)nc12	inconclusive: 10 µM [cytotoxic, partial curve, poor fit]	–
O=C1C(C=Nc2ccccc2O)=C(O)c2ccccc21	inconclusive: 25.1 µM [cytotoxic, single point]	–
COc1cc([C@@H]2Oc3cc([C@H]4Oc5cc(O)cc(O)c5C(=O)[C@H]4O)ccc3O[C@H]2CO)ccc1O	–	inactive: 12%
CC(C)(C)CC(C)(C)c1ccc(O)c(Cc2ccc(Cl)cc2Cl)c1	active: 25.1 µM	–

Reference: PubChem BioAssay AID902 (National Center for Advancing Translational Sciences (NCATS), 2007)
